# Laboratory results reported in the supplement of paper PMC8728848.
# The other results are listed elsewhere or left out.
# Tests used:
# Assay in all cases: glycan array binding signal (z-score within array); higher = stronger binding
# Conditions in all cases: glycan notation: IUPAC condensed, linker removed
# Fuc(a1-2)Gal = biological target: Fuc(a1-2)Gal
# How it was run: (§1)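 Negative Z-scores can be read as non-binding. The Z-score is calculated within each array and then averaged across arrays of one protein sequence at different concentrations or buffers and across linkers. Arrays, 3228 in all, were curated from the Consortium for Functional Glycomics database and kept only where the protein sequence was available.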
# Fuc(a1-2)Gal(b1-3)GalNAc = biological target: Fuc(a1-2)Gal(b1-3)GalNAc
# How it was run: as §1
# [1] = biological target: Fuc(a1-2)Gal(b1-3)GalNAc(a1-3)[Fuc(a1-2)]Gal(b1-4)Glc
# How it was run: as §1
# [2] = biological target: Fuc(a1-2)Gal(b1-3)GalNAc(a1-3)[Fuc(a1-2)]Gal(b1-4)GlcNAc
# How it was run: as §1
# [3] = biological target: Fuc(a1-2)Gal(b1-3)GalNAc(b1-3)Gal
# How it was run: as §1
# [4] = biological target: Fuc(a1-2)Gal(b1-3)GalNAc(b1-3)Gal(a1-4)Gal(b1-4)Glc
# How it was run: as §1
# [5] = biological target: Fuc(a1-2)Gal(b1-3)GalNAc(b1-4)[Neu5Ac(a2-3)]Gal(b1-4)Glc
# How it was run: as §1
# Fuc(a1-2)Gal(b1-3)GlcNAc = biological target: Fuc(a1-2)Gal(b1-3)GlcNAc
# How it was run: as §1
# [6] = biological target: Fuc(a1-2)Gal(b1-3)GlcNAc(b1-2)Man(a1-3)[Fuc(a1-2)Gal(b1-3)GlcNAc(b1-2)Man(a1-6)]Man(b1-4)GlcNAc(b1-4)GlcNAc
# How it was run: as §1
# [7] = biological target: Fuc(a1-2)Gal(b1-3)GlcNAc(b1-2)Man(a1-3)[Fuc(a1-2)Gal(b1-3)GlcNAc(b1-2)Man(a1-6)]Man(b1-4)GlcNAc(b1-4)[Fuc(a1-6)]GlcNAc
# How it was run: as §1
# [8] = biological target: Fuc(a1-2)Gal(b1-3)GlcNAc(b1-3)Gal(b1-4)Glc
# How it was run: as §1
# [9] = biological target: Fuc(a1-2)Gal(b1-3)GlcNAc(b1-3)GalNAc
# How it was run: as §1
# [10] = biological target: Fuc(a1-2)Gal(b1-3)GlcNAc(b1-3)[Fuc(a1-2)Gal(b1-3)GlcNAc(b1-6)]GalNAc
# How it was run: as §1
# [11] = biological target: Fuc(a1-2)Gal(b1-3)GlcNAc(b1-3)[Gal(b1-4)GlcNAc(b1-6)]Gal(b1-4)Glc
# How it was run: as §1
# [12] = biological target: Fuc(a1-2)Gal(b1-3)GlcNAc(b1-3)[Neu5Ac(a2-6)Gal(b1-4)GlcNAc(b1-6)]Gal(b1-4)Glc
# How it was run: as §1
# [13] = biological target: Fuc(a1-2)Gal(b1-3)GlcNAc6S
# How it was run: as §1
# [14] = biological target: Fuc(a1-2)Gal(b1-3)[Fuc(a1-4)]GlcNAc
# How it was run: as §1
# [15] = biological target: Fuc(a1-2)Gal(b1-3)[Fuc(a1-4)]GlcNAc(b1-2)Man(a1-3)[Fuc(a1-2)Gal(b1-3)[Fuc(a1-4)]GlcNAc(b1-2)Man(a1-3)]Man(b1-4)GlcNAc(b1-4)GlcNAc
# How it was run: as §1
# [16] = biological target: Fuc(a1-2)Gal(b1-3)[Fuc(a1-4)]GlcNAc(b1-2)Man(a1-3)[Fuc(a1-2)Gal(b1-3)[Fuc(a1-4)]GlcNAc(b1-2)Man(a1-6)]Man(b1-4)GlcNAc(b1-4)[Fuc(a1-6)]GlcNAc(b1-4)[Fuc(a1-6)]GlcNAc
# How it was run: as §1
# [17] = biological target: Fuc(a1-2)Gal(b1-3)[Fuc(a1-4)]GlcNAc(b1-3)[Fuc(a1-3)[Gal(b1-4)]GlcNAc(b1-6)]Gal(b1-4)Glc
# How it was run: as §1
# [18] = biological target: Fuc(a1-2)Gal(b1-3)[Fuc(a1-4)]GlcNAc(b1-3)[Gal(b1-4)GlcNAc(b1-6)]Gal(b1-4)Glc
# How it was run: as §1
# [19] = biological target: Fuc(a1-2)Gal(b1-4)Fuc(a1-3)]GlcNAc(b1-2)Man(a1-3)[Fuc(a1-2)Gal(b1-4)[Fuc(a1-3)]GlcNAc(b1-2)Man(a1-6)]Man(b1-4)GlcNAc(b1-4)GlcNAc
# How it was run: as §1
# Fuc(a1-2)Gal(b1-4)Glc = biological target: Fuc(a1-2)Gal(b1-4)Glc
# How it was run: as §1
# Fuc(a1-2)Gal(b1-4)Glc6S = biological target: Fuc(a1-2)Gal(b1-4)Glc6S
# How it was run: as §1
# Fuc(a1-2)Gal(b1-4)GlcNAc = biological target: Fuc(a1-2)Gal(b1-4)GlcNAc
# How it was run: as §1
# [20] = biological target: Fuc(a1-2)Gal(b1-4)GlcNAc(b1-2)Man
# How it was run: as §1
# [21] = biological target: Fuc(a1-2)Gal(b1-4)GlcNAc(b1-2)Man(a1-3)[Fuc(a1-2)Gal(b1-4)GlcNAc(b1-2)Man(a1-6)]Man(b1-4)GlcNAc(b1-4)GlcNAc
# How it was run: as §1
# [22] = biological target: Fuc(a1-2)Gal(b1-4)GlcNAc(b1-2)Man(a1-3)[Fuc(a1-2)Gal(b1-4)GlcNAc(b1-2)Man(a1-6)]Man(b1-4)GlcNAc(b1-4)[Fuc(a1-6)]GlcNAc
# How it was run: as §1
# [23] = biological target: Fuc(a1-2)Gal(b1-4)GlcNAc(b1-2)[Fuc(a1-2)Gal(b1-4)GlcNAc(b1-4)]Man(a1-3)[Fuc(a1-2)Gal(b1-4)GlcNAc(b1-2)Man(a1-6)]Man(b1-4)GlcNAc(b1-4)GlcNAc
# How it was run: as §1
# [24] = biological target: Fuc(a1-2)Gal(b1-4)GlcNAc(b1-3)Gal(b1-4)GlcNAc
# How it was run: as §1
# [25] = biological target: Fuc(a1-2)Gal(b1-4)GlcNAc(b1-3)Gal(b1-4)GlcNAc(b1-2)Man(a1-3)[Fuc(a1-2)Gal(b1-4)GlcNAc(b1-3)Gal(b1-4)GlcNAc(b1-2)Man(a1-6)]Man(b1-4)GlcNAc(b1-4)GlcNAc
# How it was run: as §1
# [26] = biological target: Fuc(a1-2)Gal(b1-4)GlcNAc(b1-3)Gal(b1-4)GlcNAc(b1-3)Gal(b1-4)GlcNAc
# How it was run: as §1
# [27] = biological target: Fuc(a1-2)Gal(b1-4)GlcNAc(b1-3)GalNAc
# How it was run: as §1
# [28] = biological target: Fuc(a1-2)Gal(b1-4)GlcNAc(b1-3)[Fuc(a1-2)Gal(b1-4)GlcNAc(b1-6)]GalNAc
# How it was run: as §1
# [29] = biological target: Fuc(a1-2)Gal(b1-4)GlcNAc(b1-3)[Fuc(a1-3)[Gal(b1-4)]GlcNAc(b1-6)]Gal(b1-4)Glc
# How it was run: as §1
# [30] = biological target: Fuc(a1-2)Gal(b1-4)GlcNAc(b1-6)GalNAc
# How it was run: as §1
# [31] = biological target: Fuc(a1-2)Gal(b1-4)GlcNAc6S
# How it was run: as §1
binder,measurement,setting,value
DrGal9 (Danio rerio) (protein) MAFYQQPPYYNPRIPFSGPIQGGLQDGKSIIISGRVLPGANRFHVNLQCGSHSEANVALHFNPRYEDTDYVVNNSYLNRTWGSEERKYESPFAQGQTFTLQILVAQDKYKISTNGRHFMDYKHRIPFTQVDTVAVEGMVEVNSVAFQNPAGFIPPQAGYAPQYAVPPGCGFPAFPSAPNYTIPHKTVMNGGLHPGKNIVINGVVNPNAKSIIFNLCYRSGIAFHYNPRFDENVVVRNTNQMEKWGAEERFGGLPFHKGQPFQVTISCNPQHYNVFVNGKQEHTYKHRYTKLNDIDILEICGDLQLTSVQA,glycan array binding signal (z-score),Fuc(a1-2)Gal,-0.362
same,glycan array binding signal (z-score),Fuc(a1-2)Gal(b1-3)GalNAc,-0.393
same,glycan array binding signal (z-score),[1],-0.413
same,glycan array binding signal (z-score),[2],-0.403
same,glycan array binding signal (z-score),[3],-0.385
same,glycan array binding signal (z-score),[4],-0.367
same,glycan array binding signal (z-score),[5],-0.359
same,glycan array binding signal (z-score),Fuc(a1-2)Gal(b1-3)GlcNAc,0.362
same,glycan array binding signal (z-score),[6],0.6
same,glycan array binding signal (z-score),[7],-0.214
same,glycan array binding signal (z-score),[8],1.02
same,glycan array binding signal (z-score),[9],-0.086
same,glycan array binding signal (z-score),[10],0.579
same,glycan array binding signal (z-score),[11],0.889
same,glycan array binding signal (z-score),[12],-0.123
same,glycan array binding signal (z-score),[13],0.19
same,glycan array binding signal (z-score),[14],-0.365
same,glycan array binding signal (z-score),[15],-0.343
same,glycan array binding signal (z-score),[16],-0.388
same,glycan array binding signal (z-score),[17],-0.349
same,glycan array binding signal (z-score),[18],-0.351
same,glycan array binding signal (z-score),[19],-0.318
same,glycan array binding signal (z-score),Fuc(a1-2)Gal(b1-4)Glc,-0.377
same,glycan array binding signal (z-score),Fuc(a1-2)Gal(b1-4)Glc6S,0.366
same,glycan array binding signal (z-score),Fuc(a1-2)Gal(b1-4)GlcNAc,-0.239
same,glycan array binding signal (z-score),[20],-0.38
same,glycan array binding signal (z-score),[21],0.772
same,glycan array binding signal (z-score),[22],-0.198
same,glycan array binding signal (z-score),[23],0.03
same,glycan array binding signal (z-score),[24],0.484
same,glycan array binding signal (z-score),[25],3.83
same,glycan array binding signal (z-score),[26],1.21
same,glycan array binding signal (z-score),[27],-0.32
same,glycan array binding signal (z-score),[28],-0.039
same,glycan array binding signal (z-score),[29],0.271
same,glycan array binding signal (z-score),[30],-0.188
same,glycan array binding signal (z-score),[31],-0.243
